# In PubChem BioAssay (NCATS):
# This list was built around the results that the source calls inconclusive (neither active nor inactive); the mix of calls is not that of the screen. Potencies of inconclusive entries are left out as doubtful fits. Activity calls are given as the source filed them. Calls follow the shape of the dose curve; as a rule, active = well fitted inhibition curve with a large enough effect; inconclusive = small, poorly fitted or top-dose-only effect; inactive = no such curve, though single readings can be large or run the other way.
# Biological target: Cytochrome P450 3A7 (Homo sapiens) (UniProt P24462)
# Test: Cytochrome P450 family 3 subfamily A member 7 (CYP3A7) small molecule antagonists: luciferase biochemical qHTS assay (AID 1963596); also: nearly all actives have a fitted effect of over 40% in size
# Settings: P450-Glo CYP3A7 enzyme luminescence, 1 h; series mostly up to 57.4 µM; activity change, negative = inhibition: at the top concentration
# Text: National Center for Advancing Translational Sciences [NCATS] Assay Overview: Cytochrome P450 (CYP) enzymes are membrane-bound hemeproteins that play a key role in metabolism of drugs and xenobiotics. The CYP3A subfamily is the most abundant, representing 30% of the total adult hepatic CYP content, whereas CYP3A7 is found predominantly in human fetal liver and accounts up to 50% of the total fetal hepatic CYP content. Testing the effect of chemicals on CYP isozymes is useful to minimize the adverse drug reactions and toxicities in the drug development process. Chemicals were tested for their effect on CYP enzyme activities by using P450-Glo (TM) screening systems (Promega Corporation, Madison, WI). These systems provide a luminescent method containing proluciferin substrates and are converted to luciferin products by CYP isozymes. The luciferin products formed are detected with a luciferin detection reagent, and the amount of light produced is proportional to CYP activity. P450-Glo (TM) CYP3A7 screening system (Catalog. No. V8812) was used to detect the compounds that interfere with CYP3A7 activity. The positive control compound used for CYP3A7 assay is ketoconazole (Sigma-Aldrich, St. Louis, MO).
# Assay Protocol Summary: Two ul of enzyme-substrate mix was dispensed into medium binding white/solid 1536-well plates (Greiner Bio-One North America Inc., Monroe, NC) using a Flying Reagent Dispenser (FRD, Aurora Discovery, San Diego, CA). Compounds dissolved in DMSO, and positive control (ketoconazole) were transferred to the assay plates at 23 nl using a Pintool station (Wako, San Diego, CA). The assay plates were incubated at room temperature for 10 min. Then 2 ul of NADPH regeneration solution was added to each well of the assay plates using an FRD and incubated at room temperature for 1 h. The reaction was stopped by adding 4 ul of detection reagent using an FRD and after 20 min incubation at room temperature the luminescence signal was measured using a ViewLux plate reader (Perkin Elmer, Shelton, CT). Data were expressed as relative luminescence units.
# % is scaled to controls: 0 for no effect and ±100 for the full control effect; potency is read from the fitted curve at half-maximal effect; tags tell the direction and shape of the fitted curve.
# UniProt P24462, sequence (P24462 whole entry, looked up): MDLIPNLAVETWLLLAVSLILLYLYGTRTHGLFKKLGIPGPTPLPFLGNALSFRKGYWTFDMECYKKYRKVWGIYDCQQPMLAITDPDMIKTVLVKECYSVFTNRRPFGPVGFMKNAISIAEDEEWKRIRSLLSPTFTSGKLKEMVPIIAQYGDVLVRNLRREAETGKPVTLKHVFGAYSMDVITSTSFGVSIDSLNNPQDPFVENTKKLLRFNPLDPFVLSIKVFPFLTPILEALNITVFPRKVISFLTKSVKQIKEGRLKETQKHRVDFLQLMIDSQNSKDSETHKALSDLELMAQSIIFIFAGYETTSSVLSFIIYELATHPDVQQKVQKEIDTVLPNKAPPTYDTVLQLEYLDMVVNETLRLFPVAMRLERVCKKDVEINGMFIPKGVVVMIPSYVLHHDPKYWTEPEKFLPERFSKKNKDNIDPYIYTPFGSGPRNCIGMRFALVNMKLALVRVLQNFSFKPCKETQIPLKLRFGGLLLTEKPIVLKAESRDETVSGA
SMILES,Potency,"activity change, negative = inhibition"
COC(C)(C)CCCC(C)C/C=C/C(C)=C/C(=O)OC(C)C (stereo not given),"inconclusive [inhibitor, partial curve]",–
Nc1ccc([As](=O)(O)O)cc1,"inconclusive [inhibitor, single point]",–
Cc1ccc2c(c1)[C@H]1CN(C)CC[C@H]1N2C(=O)CSc1nnnn1-c1ccc(Cl)cc1,"inconclusive [inhibitor, single point]",–
CC(C)NC(C)C,–,inactive: -9.87%
CN1C(=O)CN=C(c2ccccc2Cl)c2cc(Cl)ccc21,"inconclusive [inhibitor, partial curve]",–
C[C@@H]1CN(C2CCC(C#N)(c3ccc(F)cc3)CC2)CC[C@]1(C(=O)O)c1ccccc1 (stereo not given in full),–,inactive: 4%
O=C(NC(O)C(Cl)(Cl)Cl)NC(O)C(Cl)(Cl)Cl (stereo not given),"inconclusive [inhibitor, single point]",–
COP(=S)(OC)Oc1cc(Cl)c(Cl)cc1Cl,active: 13.8 µM,–
CC(Cc1ccccc1)NC=O (stereo not given),–,inactive: -1.41%
Cc1cccc(C)c1NC(=O)CN1CCCC1=O,"inconclusive [inhibitor, partial curve, poor fit]",–
COc1ccc2[nH]cc(CCN(C(C)C)C(C)C)c2c1,"inconclusive [inhibitor, partial curve, poor fit]",–
O=[N+]([O-])/N=C1\NCCN1Cc1ccc(Cl)nc1,–,inactive: 1.29%
CN(C(=O)Cc1ccccc1)C(CN1CCCC1)c1ccccc1 (stereo not given),–,inactive: -14.4%
CC1(C)C(C=C(Cl)Cl)C1C(=O)OC(C#N)c1cccc(Oc2ccccc2)c1 (stereo not given),"inconclusive [inhibitor, partial curve]",–
O=c1c(C2CC(c3ccc(-c4ccc(Br)cc4)cc3)Cc3ccccc32)c(O)sc2ccccc12 (stereo not given),"inconclusive [inhibitor, full curve]",–
C=C(C)[C@H]1CN[C@H](C(=O)O)[C@H]1CC(=O)O,"inconclusive [inhibitor, single point]",–
ClCCCN1CCN(c2cccc(Cl)c2)CC1,"inconclusive [inhibitor, single point]",–
Cn1ncnc1COc1nn2c(-c3c(F)cccc3F)nnc2cc1C1CCC1,"inconclusive [inhibitor, partial curve]",–
CC(=O)[O][Hg][c]1ccccc1,active: 0.977 µM,–
Cc1ncsc1CCCl,"inconclusive [inhibitor, full curve, poor fit]",–

SMILES,Potency,"activity change, negative = inhibition"
COc1cc(N2CCN(C)CC2)ccc1N,–,inactive: -30.7%
CCOC(=O)C1(c2ccccc2)CCN(CCC(C#N)(c2ccccc2)c2ccccc2)CC1,"inconclusive [inhibitor, full curve]",–
COc1cc(CC(C)N)cc(OC)c1OC (stereo not given),"inconclusive [inhibitor, partial curve, poor fit]",–
Clc1ccc(OCC2=NCCN2)cc1Cl,"inconclusive [inhibitor, single point]",–
CN1C(=O)NC(=O)C(C)(C2=CCCCC2)C1=O (stereo not given),"inconclusive [inhibitor, single point]",–
CCOc1ccc(NC(=O)Cn2cc(C(=O)c3ccccc3)c3ccccc32)cc1,"inconclusive [inhibitor, full curve]",–
CCN(CCO)CCn1c(Cc2ccccc2)nc2c1c(=O)n(C)c(=O)n2C,"inconclusive [inhibitor, partial curve]",–
NCC1(CC(=O)O)CCCCC1,"inconclusive [inhibitor, partial curve, poor fit]",–
COc1ccc(OC)c(CC(C)N)c1 (stereo not given),"inconclusive [inhibitor, full curve, poor fit]",–
O=S(=O)(c1ccc(Cl)cc1)c1ccc(Cl)cc1,active: 2.02 µM,–
C[C@@H](CN1CCC(n2c(=O)[nH]c3cc(Br)ccc32)CC1)NC(=O)[C@@H]1C[C@H]1c1ccccc1,–,inactive: -21.8%
COC(=O)N1CCN(C(=O)Cc2ccc(Cl)c(Cl)c2)[C@@H](CN2CCCC2)C1,"inconclusive [inhibitor, partial curve]",–
CCc1[nH]c2ccc(OC)cc2c1CCN(C)C,"inconclusive [inhibitor, single point]",–
CCCN(CCC)c1c([N+](=O)[O-])cc(S(N)(=O)=O)cc1[N+](=O)[O-],active: 1.12 µM,–
CC[N+]1(C)CCCC(OC(=O)C(O)(c2ccccc2)c2ccccc2)C1 (stereo not given),"inconclusive [inhibitor, single point]",–
Cc1cc(O)ccc1Cl,"inconclusive [inhibitor, single point]",–
ClC1=C(Cl)C2(Cl)C(CBr)CC1(Cl)C2(Cl)Cl (stereo not given),"inconclusive [inhibitor, partial curve, poor fit]",–
CCN1CCCC1CNC(=O)C(O)(c1ccccc1)c1ccccc1 (stereo not given),"inconclusive [inhibitor, single point]",–
CCN[C@@H](C)Cc1ccccc1,–,inactive: -7.54% [at 115 µM]
O=C(NCC1CCOCC1)c1cnc(Nc2ccc(Cl)cc2Cl)nc1C(F)(F)F,"inconclusive [inhibitor, partial curve, poor fit]",–
